# Measurements reported in article PMC7819943, “Rice protein-binding microarrays: a tool to detect cis-acting elements near promoter regions in rice”.
# The other results are listed elsewhere or left out.
# Biological target: T1, OsWOX13 (Oryza sativa, UniProt Q5QMM3 1-267)
# T1 sequence: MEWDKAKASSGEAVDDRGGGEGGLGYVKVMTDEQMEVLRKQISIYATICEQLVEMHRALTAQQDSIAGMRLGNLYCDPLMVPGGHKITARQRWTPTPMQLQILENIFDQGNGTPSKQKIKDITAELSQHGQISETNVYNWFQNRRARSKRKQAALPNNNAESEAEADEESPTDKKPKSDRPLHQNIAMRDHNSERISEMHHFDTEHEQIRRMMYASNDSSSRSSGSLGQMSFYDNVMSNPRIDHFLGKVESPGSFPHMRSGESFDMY
# Experiment: protein-binding microarray (RPBM); PBS, 2% BSA, 51.3 ng/ul salmon testes DNA, 50 uM zinc acetate, 200 nM TF, 25 C, 1 h; high values mean tight binding
# Details: protein: recombinant; tags: N-terminal polyhistidine and DsRed monomer fusion (pET32a); label: CyDye5-dUTP incorporated in the synthesized complementary strand; 3' TTTTT single-stranded linker to array surface; dsDNA, one strand shown
# Procedure, shortened: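 Binding signal is reported as fluorescence intensity per feature (arbitrary units) from an Axon 4000B scanner. Incubation used 200 nM of each Ni–NTA-purified, N-terminally polyhistidine- and DsRed-fused transcription factor from E. coli BL21-CodonPlus on a double-stranded custom Agilent array for 1 h at 25 °C, with 50 µM zinc acetate in the buffer, followed by washing.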
row,Sequence,binding signal
1,GAAGATTGAGCTCTGCAGCAACAACCCAAACACACAAAGCCGGAGTCACCTAGTGCAG,3290 fluorescence intensity (a.u.)
2,TTCGCATGATTTTGTACATACCACTTTCTGCCTATGCAAGCGGAGTCACCTAGTGCAG,5030 fluorescence intensity (a.u.)
3,GTCTCTTTCAATCACAAATGATTGCTGACTAAACTTGTTTCGGAGTCACCTAGTGCAG,39100 fluorescence intensity (a.u.)
4,TATAATTGAATAAATTTTCATATTATATTTATCTTGTGTTCGGAGTCACCTAGTGCAG,63100 fluorescence intensity (a.u.)
5,TTATTAGTTAATTAATAGTAGAAATAATATAGTCATTTCTCGGAGTCACCTAGTGCAG,12300 fluorescence intensity (a.u.)
6,GCGTCAATTAGTGCCTCTCTCTGTATGCATTCTTCCTATTCGGAGTCACCTAGTGCAG,23300 fluorescence intensity (a.u.)
7,AGTCTAATTAGTCTATGATTAGCCATAAGTACTATAGTAACGGAGTCACCTAGTGCAG,48400 fluorescence intensity (a.u.)
8,GAGGCTAATTGCCTTCGCAAGCAAACAAACCCAGCGCGGTCGGAGTCACCTAGTGCAG,13400 fluorescence intensity (a.u.)
9,TATAAAATTAGAAACATGATAATGATAAGGTTTGATATTTCGGAGTCACCTAGTGCAG,7420 fluorescence intensity (a.u.)
10,GATTAATTTATTTTGAAAAGATAAGAGTACAGACGACTCTCGGAGTCACCTAGTGCAG,14800 fluorescence intensity (a.u.)
11,GCAGTTGATGGTCAAAATTGGTAGTTAACAACCGTCAACACGGAGTCACCTAGTGCAG,7710 fluorescence intensity (a.u.)
12,ATTTAATTGCAATGAATTTAATGGTGTAATTGGACCATAACGGAGTCACCTAGTGCAG,37900 fluorescence intensity (a.u.)
13,CAGATGAAGTGATTGCAAATCTCAAGAACGACTTGGTTGACGGAGTCACCTAGTGCAG,11500 fluorescence intensity (a.u.)
14,TTTAGAGATAAATAAATTTAATAGACTCTATAGGACGTTACGGAGTCACCTAGTGCAG,6330 fluorescence intensity (a.u.)
15,GTGGTGATAGGTGATGTACACGGCGCCGGGGAGGCGATGACGGAGTCACCTAGTGCAG,4940 fluorescence intensity (a.u.)
16,ATTTAATCACCTCATTGATTGGATCACATCCATACTGTGACGGAGTCACCTAGTGCAG,29800 fluorescence intensity (a.u.)
17,CACCTATAATAACCTCAATTAACTTGGTGGCTTTATGCTCCGGAGTCACCTAGTGCAG,9290 fluorescence intensity (a.u.)
18,CGTGCGAGTCGCTCATCAATCACGTCATTCGCCCACACACCGGAGTCACCTAGTGCAG,9080 fluorescence intensity (a.u.)
19,AAATATATTCAATTATTGATTTGATGAAACTAATTTCGTACGGAGTCACCTAGTGCAG,23500 fluorescence intensity (a.u.)
20,AAAATTTGACAATATAACTTATATTGACATAACCTCCATACGGAGTCACCTAGTGCAG,11700 fluorescence intensity (a.u.)
21,TTTAGACAGTAATTAAAGTCGAATTACATTGCATTGTTCGCGGAGTCACCTAGTGCAG,40300 fluorescence intensity (a.u.)

row,Sequence,binding signal
1,AGCGAGATTGACTTGTTTGAAGTCAGATCAAAGCCATAATCGGAGTCACCTAGTGCAG,4870 fluorescence intensity (a.u.)
2,CGAAATTACTAATTACTGTTACCATTTTGTGCGTATCCTGCGGAGTCACCTAGTGCAG,35800 fluorescence intensity (a.u.)
3,TTTAGTGATTTGTCTAGTAATCACCTTGGTGGTTTGATTCCGGAGTCACCTAGTGCAG,17200 fluorescence intensity (a.u.)
4,TGGTAATTAGCTGGTGGATGCTGAACGTATTATTTTATTACGGAGTCACCTAGTGCAG,16300 fluorescence intensity (a.u.)
5,AAATTGAAAATTTTCAAATCAAGATTTGAAAACTATCAAGCGGAGTCACCTAGTGCAG,6740 fluorescence intensity (a.u.)
6,GGGAGCTTGACTGGATCTGAGCTAGCTGGATTGGTGGGTGCGGAGTCACCTAGTGCAG,4970 fluorescence intensity (a.u.)
7,TATATATATATATATATATATATATATATATATGTGTGTGCGGAGTCACCTAGTGCAG,25400 fluorescence intensity (a.u.)
8,AACATAATTGAGTAAATTGTATTTTCCTTTTGTGTTAGAGCGGAGTCACCTAGTGCAG,32600 fluorescence intensity (a.u.)
9,CTACTACAATGATTATTAATTATATGAATTTGGACTAGAGCGGAGTCACCTAGTGCAG,28000 fluorescence intensity (a.u.)
10,ATAATTTCCAATTTCTTTCCATACGTTTCTAACCTAGACCCGGAGTCACCTAGTGCAG,8590 fluorescence intensity (a.u.)
11,TACATCATGATTTGCAGTTCTTTGGCCTGATGAGTAAACCCGGAGTCACCTAGTGCAG,13700 fluorescence intensity (a.u.)
12,TGTCATCAAATTGGCATTCATAGCGCTATGTTCATATGTTCGGAGTCACCTAGTGCAG,10900 fluorescence intensity (a.u.)
13,ACTACTTACTACAAATTGAAAGACGCGTCATGTCTGCTGTCGGAGTCACCTAGTGCAG,6660 fluorescence intensity (a.u.)
14,GCTGATTTTAAGTATAAGCGAAACGGTATATATGCAAATACGGAGTCACCTAGTGCAG,10600 fluorescence intensity (a.u.)
15,TATCTGATTCAAATTTAAATTTAAATTCAAATATTTTCTACGGAGTCACCTAGTGCAG,11900 fluorescence intensity (a.u.)
16,AATGCTGATGGTTAATTGAGTTTTAATTGTTAGTATTAGTCGGAGTCACCTAGTGCAG,14300 fluorescence intensity (a.u.)
17,TCATAACTTATACACCTGATTGCAGCTAGACAGGGTATGACGGAGTCACCTAGTGCAG,11700 fluorescence intensity (a.u.)
18,GAATTGATATACTAATTATAGCAGCATGTAGCTACCGTCCCGGAGTCACCTAGTGCAG,24700 fluorescence intensity (a.u.)
19,ACAAACCAGAGATTAATTACAAACCAGCAAATCCATATCACGGAGTCACCTAGTGCAG,4840 fluorescence intensity (a.u.)
20,ATCTTAATTGTCAACGCTGTTTGTGCAATAATCTTCAGCTCGGAGTCACCTAGTGCAG,35100 fluorescence intensity (a.u.)
21,ACGGTGGCGGGGATGTGGAGGGAGGTGCAGGGGTGCGGGGCGGAGTCACCTAGTGCAG,7800 fluorescence intensity (a.u.)
